Measurements published in patent US5458889A (priority 1986, dated 1995).
Values joined by “and” are separate entries in the source; they are usually repeats but may differ in a detail not shown here. Equal values may be shown once. Read-outs that look alike come from different tables or passages of the source.

Assays:
[1] = test system: Escherichia coli CNCM 54 127; details: pH 7.2
[2] = test system: Trichomonas
[3] = test system: Staphylococcus Aureus Oxford origin CNCM 53 154; details: pH 7.2
[4] = test system: Gonococcus
[5] = test system: Streptococcus faecalis CNCM 5 855; details: pH 7.2
[6] = test system: Mycobacterium smegmatis CNCM 7 326; details: pH 7.2
[7] = test system: Pseudomonas aeruginosa CNCM A 22; details: pH 7.2
[8] = test system: Staphylococcus Aureus
[9] = test system: Treponema
[10] = test system: Streptococcus
[11] = test system: Pseudomonas Aeruginosa; assay type: cell-based
[12] = test system: Gonococcus; remark: listed apart in the source
[13] = test system: Ducrey's Bacillus
[14] = test system: Candidas Albicans
[15] = test system: Gardnerella
[16] = test system: Trichomonas; remark: listed apart in the source
[17] = test system: Chlamydia; test: MIC on Chlamydia (Tests 7 and 8); assay type: cell-based
Description: Inoculum: it is constituted by the host-cells of chlamydia or Mac Coy cells. They are preserved at
80° C. The cellular concentration is from 2 to […] cells/ml for the tests. The cellular layer is prepared in a complete culture medium.
The substances to be tested are diluted with an increasing range which geometrical ratio is 2 in bidistilled sterile water.
1 ml of dilution of the substances to be tested is mixed with 1 ml of cellular suspension (Mac Coy cells). then incubated 1 hour and 24 hours at 37° C. in stove. 0.2 ml of this admixture is then placed in the plates of the wells. The plates are centrifugated (1 hour at 2000 rpm) and incubated 1 hour at 37° C. The culture medium is then replaced with 0.2 ml of new medium containing 0.5 mg1 of cycloheximide and the plates are then incubated 48 hours at 37° C. The cellular layer is then fixed with methanol and overall couloured with a monoclonal antibody and conjugate with FITC (fluorescein isothiocyanate). Then the inclusions present in the Mac Coy cells are observed with an inversed epifluorescence microscope.
Therefore, the toxicity of the substances to be tested was first tested, and was taken into account for totally respecting the integrity of the host-cell.

Row | Substance | Minimal inhibiting concentration (MIC) [1] [µg/mL] | Minimal inhibiting concentration (MIC) [2] | Minimal inhibiting concentration (MIC) [3] [µg/mL] | Minimal inhibiting concentration (MIC) [4] | Minimal inhibiting concentration (MIC) [5] [µg/mL] | Minimal inhibiting concentration (MIC) [6] [µg/mL] | Minimal inhibiting concentration (MIC) [7] [µg/mL] | Minimal inhibiting concentration (MIC) [8] [µg/mL] | Minimal inhibiting concentration (MIC) [9] [µg/mL] | Minimal inhibiting concentration (MIC) [10] [µg/mL] | Minimal inhibiting concentration (MIC) [11] [µg/mL] | Minimal inhibiting concentration (MIC) [12] [µg/mL] | Minimal inhibiting concentration (MIC) [13] [µg/mL] | Minimal inhibiting concentration (MIC) [14] [µg/mL] | Minimal inhibiting concentration (MIC) [15] [µg/mL] | Minimal inhibiting concentration (MIC) [16] [µg/mL] | Minimal inhibiting concentration (MIC) [17] [µg/mL]
1 | Benzalkonium chloride | 6.57 | 11.80 µg/mL and 15.60 µg/mL | 1.56 | 23.65 µg/mL and 15.62 µg/mL | 4 | 30 | 31.25 |  |  |  |  |  |  |  |  |  | 
2 | nonoxynol 9 | 8 |  | 4 |  | 7 | 65 | 50 | 4 | 75 | 20 | 50 |  |  |  |  |  | 
3 | Benzalkonium fluoride |  |  |  |  |  |  |  | 1.56 | 70 | 15 | 31.25 | 1.15 | 75 | 50 | 50 | 1.3 | 100
